Where “and” joins values, the source holds several entries; their conditions need not be identical. Identical values can stand only once.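 Tested at 5 concentrations; 48 h exposure; 96-well plates; endpoints linearly interpolated, else capped at highest concentration. At the GI50, growth is halved.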 Calls of active or inactive are those of the source. No stated cut-off is given here; in the data, active = GI50 up to about 1.1 µM and inactive = higher.
System: NCI-H322M
Assay: NCI tumour cell line growth inhibition, 48 h

Structure (SMILES)	GI50
Nc1cc(S(=O)(=O)O)cc2ccc(S(=O)(=O)O)cc12	inactive: > 100 µM
O=C(O)/C(=C\c1ccccc1)Cc1ccccc1	inactive: > 100 µM
O=[As](O)(O)c1ccc2nc3cc([As](=O)(O)O)ccc3nc2c1	inactive: > 100 µM
COc1ccc(NC(=S)C#N)cc1	inactive: > 100 µM
O=C(c1ccc(Cl)cc1)c1cnc(Nc2ccccc2Cl)s1	inactive: 22.1 µM
O=C1Nc2ccccc2/C1=N/Nc1ccccc1Cl	inactive: 44.1 µM
CCCC(=O)NC1=C(Cl)C(=O)c2ccccc2C1=O	inactive: 15.1 µM
CC(C)=NNc1cnnc2ccc([N+](=O)[O-])cc12	inactive: > 100 µM
CCCc1cn2c(/C=N/NC(=N)N)c(-c3ccc([N+](=O)[O-])cc3)nc2s1	inactive: 1.77 µM
N#Cc1ccccc1NC(=O)C(=O)C1NC(=S)NC1=O (stereo unspecified)	inactive: > 100 µM
COc1cc2c3c(n(C)c(=O)c2cc1OC)-c1cc2c(cc1/C3=C\CCCI)OCO2	inactive: > 4.65 µM
Cc1ccc(N(C(=O)CC(=O)N2N=C(c3ccccc3)C(/N=N/c3ccc([N+](=O)[O-])cc3)C2=O)C(=O)c2ccc(Cl)cc2)cc1 (stereo unspecified)	inactive: 8.3 µM
Cc1ccc(S(=O)(=O)NC(=O)NC(Cc2ccc(O)c(O)c2)C(=O)O)cc1 (stereo unspecified)	inactive: > 100 µM
COc1ccc(Nc2nc3ccccc3nc2C(=O)O)cc1OC	inactive: > 100 µM
Oc1ncnc2c1CCCN2	inactive: > 100 µM
CC(=O)c1ccccc1NC(=O)C(=O)C(C(=O)c1ccccc1-c1ccccc1)C1OC(=O)c2ccccc21 (stereo unspecified)	inactive: 22.5 µM
C[C@]12CC(C=O)C(=O)C(O)=C1CC[C@@H]1C2CC[C@@]2(C)C1CC[C@]2(C)O (stereo partly specified)	inactive: 19.1 µM
N#CCC(=O)c1cc(OCc2cc(OCc3ccc(Br)cc3)cc(OCc3ccc(Br)cc3)c2)cc(OCc2cc(OCc3ccc(Br)cc3)cc(OCc3ccc(Br)cc3)c2)c1	inactive: > 100 µM
O=c1[nH]c2cc([N+](=O)[O-])ccc2nc1/C(=N/Nc1ccccc1)C(O)c1ccccc1Cl (stereo unspecified)	inactive: 36.1 µM
Cc1c(C(=N)N)oc2ccccc12	inactive: > 100 µM
COC(=O)c1cc(CC2Cc3cc4c(cc3C2)CCC4)cc2c1CCC2	inactive: 83.2 µM
CCCCn1c2c(n(CCCC)c1=S)-c1c(n(CCCC)c(=S)n1CCCC)SSSS2	inactive: > 67.9 µM
CC1=NN(c2ccccc2)C(=O)/C1=C\c1ccc([N+](=O)[O-])cc1	inactive: 26.7 µM

Structure (SMILES)	GI50
CNC(C#N)c1ccc(OC)cc1 (stereo unspecified)	inactive: > 100 µM
CCOC(=O)C12C3CCC1C2C(=O)C3 (stereo unspecified)	inactive: > 100 µM
C=CCOCCC(CC=C)C(=O)CC(=O)OC (stereo unspecified)	inactive: > 100 µM
COc1cc(CC2C(=O)OCC2Cc2ccc(OC)c(OC)c2)ccc1O (stereo unspecified)	inactive: > 100 µM
CN(C(=O)C12C3(C(=O)O)C4C5(C(=O)O)C3C1(C(=O)O)C5C42C(=O)O)C(C)(C)C (stereo unspecified)	inactive: > 100 µM
CCOC(=O)CCC(=O)C1c2cccc(O)c2C(=O)c2c(O)cc(C)cc21 (stereo unspecified)	active: 0.561 µM
O=C(O/N=C1/CCCC/C1=C\c1ccccc1)c1ccccc1	inactive: > 100 µM
CC(=O)Oc1ccc2c(c1OC(C)=O)CCC1C2=CC[C@]2(C)C(=O)CCC12 (stereo partly specified)	inactive: 21.7 µM
C=CCC1(Sc2ccccn2)Sc2ccc3ccccc3c2-c2c(ccc3ccccc23)S1	inactive: > 100 µM
N#Cc1c([N+](=O)[O-])cc(C(F)(F)F)cc1[N+](=O)[O-]	inactive: 16.9 µM
O=C(NCCNCCO)N/N=C/c1ccc(Cl)cc1	inactive: 63.2 µM
COC(=O)C1(C(=O)OC)Cc2ccc(C)cc2C2=C1C(=O)c1ccccc1C2=O	inactive: > 100 µM
CC(=O)Oc1ccc(-c2c(OC(C)=O)c(OC(C)=O)c(-c3ccc(OC(C)=O)c(OC(C)=O)c3)c(OC(C)=O)c2OC(C)=O)cc1	inactive: 18.9 µM
Nc1ccc(C(=O)N2CCC[C@H]2CO)c(N)c1	inactive: > 100 µM
COC(CO[Si](C)(C)N[Si](C)(C)OCC(OC)c1ccccc1)c1ccccc1 (stereo unspecified)	inactive: > 100 µM
C=CCC(CNC(=O)OCc1ccccc1)O[Si](C)(C)C(C)(C)C (stereo unspecified)	inactive: 55.1 µM
O=C1CCN2CCC(=O)c3c2c(cc2ccccc32)N1	inactive: > 100 µM
CCCCCCCCCCC(O)CCCCCCC(=O)O (stereo unspecified)	inactive: 20.2 µM
COc1cc(NP(=O)(Oc2ccccc2)Oc2ccccc2)ccc1Nc1c2ccccc2nc2c1[nH]c1ccccc12	inactive: 17 µM
Cc1ncc(C/N=C/c2ccc(Cl)cc2)c(N)n1	inactive: > 100 µM
CSc1nc(Cl)c(Br)c(Sc2nc(N)nc3nc[nH]c23)n1	inactive: 10.1 µM
COc1ccc2[nH]c3c(c2c1)CCc1ccccc1-3	inactive: > 100 µM
O=C(Nc1nc2ncn(CCI)c2c(=O)[nH]1)c1ccccc1	inactive: > 100 µM

Structure (SMILES)	GI50
N#Cc1cnn2c1n[n+]([O-])c1ccc(Cl)cc12	inactive: 5.08 µM
Cc1ccc(F)c2[nH]c(-c3ccccc3)cc(=O)c12	inactive: 4.9 µM
O=C1ON=C2C3CC4CC12CC1(C3)C(=O)ON=C41	inactive: > 100 µM
CN1CCN(c2ccc(-n3cc(C(=O)O)c(=O)c4cc(F)c(N5CCN(C)CC5)cc43)nc2)CC1	inactive: > 100 µM
CCCC(Sc1ccccc1)P(=O)(c1ccccc1)c1ccccc1 (stereo unspecified)	inactive: 55.7 µM
CCOC(=O)/C=C(\C(=O)OCC)n1ccc(=O)n(Cc2cnnn2COCCOC(C)=O)c1=O	inactive: 29.7 µM
Cc1ccccc1SC(/C=C/NNC1=NN=C(c2ccccc2)C(c2ccccc2)N1)c1ccccc1 (stereo unspecified)	inactive: 15.3 µM
O=C(Cc1ccccc1)Oc1ccc2c(-c3ccccc3)c(C(=O)Nc3ccc(Cl)cc3)c(=O)oc2c1	inactive: > 100 µM
CCCCCCCCCCCCCCCCCC(=O)OCC(C[As](=O)(O)O)OC(=O)CCCCCCCCCCCCCCCCC (stereo unspecified)	inactive: > 100 µM
C/C(=N\c1c2ccccc2nc2ccccc12)N(C)C	inactive: 28.6 µM
CN(C)CCNC(=O)c1cccc2c(Nc3ccc(S(=O)(=O)N=C(N)N)cc3)c3ccccc3nc12	inactive: 22 µM
CN(C)c1ccc(C2CC(=O)CC(c3ccc(N(C)C)cc3)C23C(=O)NC(=S)NC3=O)cc1 (stereo unspecified)	inactive: > 100 µM
COc1c(O)ccc(C2=Cc3ccc(O)cc3OC2)c1OC	inactive: 27 µM
O=C1/C(=C/c2ccccc2)CN(C(=O)Oc2ccccc2)C/C1=C\c1ccccc1	inactive: > 100 µM
Cc1c[n+]([O-])c2ccccc2[n+]1[O-]	inactive: > 100 µM
O=C(OCc1ccccc1)N1N=NC2C3CC(OCc4ccccc4)(OCc4ccccc4)C(O3)C21 (stereo unspecified)	inactive: 37.2 µM
Cc1cc2occ(-c3ccc(Cl)cc3)c2c(=O)o1	inactive: > 100 µM
CCc1cccc(CC)c1NC(=O)C1=CNC(C)=C(C(=O)Nc2c(CC)cccc2CC)C1c1ccc(O)c(OC)c1 (stereo unspecified)	inactive: 42.7 µM
O=Cc1ccc(CCl)cc1	inactive: 23.4 µM
CN1CCN(C2=C(Cl)C3(OCCS3)C(F)(F)C2(F)F)CC1 (stereo unspecified)	inactive: > 100 µM
CC(=O)c1cccc(Nc2c3ccccc3nc3occc23)c1	inactive: 35 µM
C/C=C(/C)C(=O)O[C@H]1C(C)=C[C@]23C(=O)[C@@H](C=C(COC(C)=O)[C@@H](O)[C@]12O)[C@H]1[C@@H](C[C@H]3C)[C@@]1(C)OC(=O)/C(C)=C\C	inactive: 3.07 µM
COc1ccc(OC)c(/C=C/[N+](=O)[O-])c1	inactive: 5.7 µM and inactive: 3.35 µM

Structure (SMILES)	GI50
Cc1cc(NS(=O)(=O)c2ccc(Nc3c4ccccc4nc4c(C(=O)N5CCN(CCOS(C)(=O)=O)CC5)cccc34)cc2)no1	inactive: > 100 µM
COc1ccc2nccc(NCCCN3CCN(CCCNc4ccnc5ccc(OC)cc45)CC3)c2c1	active: 0.48 µM
CC(C)N1CCC2(CC1)NNc1ncccc1-n1cccc12	inactive: > 100 µM
C/C(CC(=O)Nc1ccc([N+](=O)[O-])cc1)=N/N=C(N)N	inactive: > 100 µM
CC(=O)OC1C(C)OC(OC(=O)C2CCC3C(C2)OC2(CC(OC(=O)/C=C/c4ccccc4)C(C)CO2)C32CO2)C(OC2OC(C)C(O)C(OC(C)=O)C2O)C1O (stereo unspecified)	active: < 0.01 µM
CC(=O)n1[nH]c(=O)n(-c2ccccc2)c1=O	inactive: > 100 µM
C[C@]12Cc3conc3C(O)=C1CC[C@@H]1C2CC[C@@]2(C)C1CC[C@@H]2O (stereo partly specified)	inactive: 19.9 µM
COc1cc2c(cc1OCc1ccccc1)NC(=O)[C@@H]1C[C@@H](O)CN1C2=O	inactive: > 100 µM
CCOC(=O)C1=NN(c2ccccc2)C2=CC(C)=NN(C)C(=S)N21	inactive: > 100 µM
CCC(=O)Nc1ccc(N2C(=O)/C(=C/c3ccc(O)c(OC)c3)N=C2c2ccccc2)cc1	inactive: 17.7 µM
N#Cc1ccc2cc3c(cc2c1)OCO3	inactive: 46.5 µM
Cc1cccc2nc3c(=O)[nH]c(=O)nc-3n(C)c12	inactive: > 100 µM
CC(C)(C)OC(=O)N1CC(C)(C)N2C(=O)C3(CCCO3)C12 (stereo unspecified)	inactive: > 100 µM
C=C(CO)[C@H]1Oc2ccc(C(C)=O)cc2[C@@H]1O	inactive: > 100 µM
OC1=CN=C(C2CC2)Oc2ccccc21	inactive: > 100 µM
Cc1c(-c2ccccc2)c(C#N)c2nnn(-c3ccc(Cl)cc3)c(=O)n12	inactive: > 100 µM
COC(=O)CC(C(C(=O)OCc1ccccc1)C(C)O)N1C(=O)OC(c2ccccc2)C1c1ccccc1 (stereo unspecified)	inactive: > 100 µM
CC(=O)O[C@H]1C[C@H]2[C@@H]([C@H](OC(C)=O)C[C@@H]3CC4(CC[C@@]32C)OOC2(CCCCC2)OO4)[C@@H]2CC[C@H]([C@H](C)CCC(=O)O)[C@@]12C	inactive: 13.2 µM
Cc1c(S(=O)(=O)N/C(=N\O)Nc2ccc(Cl)c(Cl)c2)sc2ccc(Cl)cc12	inactive: 22.4 µM
C[N+](C)(CCNc1ccc(NCC[N+](C)(C)Cc2ccc([N+](=O)[O-])cc2)c2c1C(=O)c1c(O)ccc(O)c1C2=O)Cc1ccc([N+](=O)[O-])cc1	inactive: > 50 µM
COc1ccc(NC(=S)N/N=C2\C(=O)Nc3ccccc32)cc1	inactive: 24.4 µM
CC(=O)Oc1ccc2c(C)cc(=O)oc2c1OC(C)=O	inactive: 29.5 µM
